Measured values taken from PubChem BioAssay (Tox21).
Where “and” joins values, the source holds several entries; their conditions need not be identical. Equal entries are not always repeated. The inconclusive results got no clear call from the source; some entries with a clear call stand among them for comparison. Where the call is inconclusive, the potency comes from a doubtful curve fit. Calls of active or inactive are those of the source. Unless noted, calls follow the shape of the dose curve; as a rule, active = well fitted curve in the direction sought with a large enough effect in the repeat runs; inconclusive = weak or mixed curves; inactive = no such curve, though single readings can be large; an effect the other way counts as inactive or inconclusive.

Tests used:
[1] = biological target: Estrogen receptor (Homo sapiens) (UniProt P03372); assay: qHTS assay to identify small molecule agonists of the estrogen receptor alpha (ER-alpha) signaling pathway using the BG1 cell line (AID 743079); conditions: BG1Luc4E2 cells, ERE-luciferase agonist, 22 h; activation: at 70.3 µM (top of the series) unless noted; also: nearly all actives have a fitted effect of over 20% in size
Chain of UniProt P03372 (P03372 whole entry, looked up): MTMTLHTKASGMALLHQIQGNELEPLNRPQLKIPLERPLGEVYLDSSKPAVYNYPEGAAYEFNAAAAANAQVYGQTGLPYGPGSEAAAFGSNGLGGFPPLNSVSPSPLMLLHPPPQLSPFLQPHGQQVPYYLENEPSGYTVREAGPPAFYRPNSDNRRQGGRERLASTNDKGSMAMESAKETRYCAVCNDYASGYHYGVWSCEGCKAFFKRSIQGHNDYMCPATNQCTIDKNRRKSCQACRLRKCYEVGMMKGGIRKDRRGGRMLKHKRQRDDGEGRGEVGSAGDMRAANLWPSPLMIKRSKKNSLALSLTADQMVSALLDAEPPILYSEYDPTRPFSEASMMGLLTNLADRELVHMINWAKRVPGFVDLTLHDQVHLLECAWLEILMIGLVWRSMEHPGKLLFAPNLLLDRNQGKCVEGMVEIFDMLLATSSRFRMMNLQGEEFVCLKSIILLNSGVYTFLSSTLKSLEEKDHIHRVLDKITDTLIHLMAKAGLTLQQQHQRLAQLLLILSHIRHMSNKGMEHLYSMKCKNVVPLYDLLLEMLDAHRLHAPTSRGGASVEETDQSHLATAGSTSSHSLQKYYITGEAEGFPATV

[2] = qHTS assay to identify small molecule antagonists of the estrogen receptor alpha (ER-alpha) signaling pathway using the BG1 cell line (AID 743080; calls by dose curve;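 also: BG1 cells stimulated with 17beta-estradiol alongside compound; nearly all actives have a fitted effect of over 25% in size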; as to activity change, negative = inhibition: % is scaled to controls: 0 for no effect and ±100 for the full control effect); conditions: BG1Luc4E2 ERE-luciferase antagonist mode, luminescence; activity change, negative = inhibition: at 70.3 µM (top of the series) unless noted
How it was run: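 Seeding, 24 h rest, compound transfer from DMSO, 17beta-estradiol addition, 21.5 h incubation, CellTiter-Fluor (30 min, 37 C), then ONE-Glo (30 min, room temperature): this sequence was run on BG1-Luc-4E2 reporter cells.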

[3] = qHTS assay to identify small molecule antagonists of the estrogen receptor alpha (ER-alpha) signaling pathway using the BG1 cell line - cell viability counter screen (AID 743081); conditions: BG1Luc4E2 viability, CellTiter-Fluor, 22 h; activity change, negative = cytotoxicity: at 70.3 µM (top of the series);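 also: compound given together with 17beta-estradiol as the ER stimulus; nearly all actives have a fitted effect of over 45% in size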
Aromatase (Homo sapiens) = Aromatase (Homo sapiens) (UniProt P11511); assay: qHTS assay to identify aromatase inhibitors (AID 743083); conditions: MCF-7 aro ERE, testosterone-driven ERE luciferase, 24 h; activity, negative = inhibition: at 70.3 µM (top of the series); also: nearly all actives have a fitted effect of over 55% in size
Chain of UniProt P11511 (P11511 whole entry, looked up): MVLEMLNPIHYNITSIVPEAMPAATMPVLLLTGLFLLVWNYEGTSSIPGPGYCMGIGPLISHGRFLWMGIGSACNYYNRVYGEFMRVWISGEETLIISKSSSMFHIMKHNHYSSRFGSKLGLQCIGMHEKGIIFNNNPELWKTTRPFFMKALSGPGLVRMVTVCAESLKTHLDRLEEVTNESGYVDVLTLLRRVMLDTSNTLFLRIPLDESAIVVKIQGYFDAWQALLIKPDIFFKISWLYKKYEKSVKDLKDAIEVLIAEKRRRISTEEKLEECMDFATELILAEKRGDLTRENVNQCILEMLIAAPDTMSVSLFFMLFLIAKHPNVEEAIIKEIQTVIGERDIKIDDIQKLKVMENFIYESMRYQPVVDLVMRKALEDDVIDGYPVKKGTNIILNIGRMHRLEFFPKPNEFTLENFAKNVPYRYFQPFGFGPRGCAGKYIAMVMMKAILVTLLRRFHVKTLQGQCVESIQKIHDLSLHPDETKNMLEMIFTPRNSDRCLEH

[4] = qHTS assay to identify aromatase inhibitors - cell viability counter screen (AID 743084); conditions: MCF-7 aro ERE viability, CellTiter-Fluor, 24 h; activity change, negative = cytotoxicity: at 70.3 µM (top of the series);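 also: cells stimulated with testosterone during compound exposure; nearly all actives have a fitted effect of over 55% in size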
[5] = biological target: Peroxisome proliferator-activated receptor gamma (Homo sapiens) (UniProt P37231); assay: qHTS assay to identify small molecule agonists of the peroxisome proliferator-activated receptor gamma (PPARg) signaling pathway (AID 743094; active = well fitted activation curve with a large enough effect in the signal ratio in the repeat runs, not every such curve was filed as active; inconclusive = weak or mixed curves, or effect the other way; inactive = no such curve, though single readings can be large or run the other way; the % refers to the signal ratio; as to activation: % is scaled to controls: 0 for no effect and ±100 for the full control effect); conditions: HEK293H PPARg-UAS-bla, beta-lactamase FRET ratio, 17 h
Chain of UniProt P37231 (P37231 whole entry, looked up): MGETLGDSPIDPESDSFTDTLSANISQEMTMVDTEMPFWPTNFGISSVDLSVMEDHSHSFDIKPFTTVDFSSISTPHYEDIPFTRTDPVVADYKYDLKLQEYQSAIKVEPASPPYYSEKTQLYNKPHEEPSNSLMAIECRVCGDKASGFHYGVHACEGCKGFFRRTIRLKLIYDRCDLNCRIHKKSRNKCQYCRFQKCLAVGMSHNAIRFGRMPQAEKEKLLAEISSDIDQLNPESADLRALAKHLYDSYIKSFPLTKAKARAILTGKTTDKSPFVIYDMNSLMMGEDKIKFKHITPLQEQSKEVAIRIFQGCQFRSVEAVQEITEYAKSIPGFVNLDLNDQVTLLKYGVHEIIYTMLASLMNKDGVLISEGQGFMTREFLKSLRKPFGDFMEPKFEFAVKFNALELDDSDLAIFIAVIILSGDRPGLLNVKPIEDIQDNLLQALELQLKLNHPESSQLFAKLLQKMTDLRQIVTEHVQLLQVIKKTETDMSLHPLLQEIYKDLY
How it was run: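 Stably transfected HEK293H cells (GeneBLAzer PPARg UAS-bla) were incubated with test substances for 17 h at 37C after a 5 h pre-incubation; beta-lactamase activity was then detected by FRET substrate fluorescence.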

[6] = qHTS assay to identify small molecule that activate the aryl hydrocarbon receptor (AhR) signaling pathway - cell viability counter screen (AID 743086); also: nearly all actives have a fitted effect of over 45% in size
How it was run: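 Cytotoxicity counter screen: CellTiter-Fluor signal (30 min, 37 C) in 4000 HepG2 cells/well carrying the DRE-luciferase reporter, following 24 h compound exposure at 37 C.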

[7] = biological target: Peroxisome proliferator-activated receptor gamma (Homo sapiens) (UniProt P37231); assay: qHTS assay to identify small molecule antagonists of the peroxisome proliferator-activated receptor gamma (PPARg) signaling pathway (AID 743191; calls by dose curve; also: nearly all actives have a fitted effect of over 30% in size; as to ratio activity, negative = inhibition: % is scaled to controls: 0 for no effect and ±100 for the full control effect); conditions: HEK293H PPARg-UAS-bla, beta-lactamase ratio, antagonist, 17 h
How it was run: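 Beta-lactamase reporter under UAS control in HEK293H PPARg-bla cells; compound treatment 17 h at 37C. Read-out: fluorescence intensity after 1 h room-temperature incubation with LiveBLAzer B/G FRET substrate.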

[8] = biological target: Aryl hydrocarbon receptor (Homo sapiens) (UniProt P35869); assay: qHTS assay to identify small molecule that activate the aryl hydrocarbon receptor (AhR) signaling pathway (AID 743085); also: nearly all actives have a fitted effect of over 15% in size
Chain of UniProt P35869 (P35869 whole entry, looked up): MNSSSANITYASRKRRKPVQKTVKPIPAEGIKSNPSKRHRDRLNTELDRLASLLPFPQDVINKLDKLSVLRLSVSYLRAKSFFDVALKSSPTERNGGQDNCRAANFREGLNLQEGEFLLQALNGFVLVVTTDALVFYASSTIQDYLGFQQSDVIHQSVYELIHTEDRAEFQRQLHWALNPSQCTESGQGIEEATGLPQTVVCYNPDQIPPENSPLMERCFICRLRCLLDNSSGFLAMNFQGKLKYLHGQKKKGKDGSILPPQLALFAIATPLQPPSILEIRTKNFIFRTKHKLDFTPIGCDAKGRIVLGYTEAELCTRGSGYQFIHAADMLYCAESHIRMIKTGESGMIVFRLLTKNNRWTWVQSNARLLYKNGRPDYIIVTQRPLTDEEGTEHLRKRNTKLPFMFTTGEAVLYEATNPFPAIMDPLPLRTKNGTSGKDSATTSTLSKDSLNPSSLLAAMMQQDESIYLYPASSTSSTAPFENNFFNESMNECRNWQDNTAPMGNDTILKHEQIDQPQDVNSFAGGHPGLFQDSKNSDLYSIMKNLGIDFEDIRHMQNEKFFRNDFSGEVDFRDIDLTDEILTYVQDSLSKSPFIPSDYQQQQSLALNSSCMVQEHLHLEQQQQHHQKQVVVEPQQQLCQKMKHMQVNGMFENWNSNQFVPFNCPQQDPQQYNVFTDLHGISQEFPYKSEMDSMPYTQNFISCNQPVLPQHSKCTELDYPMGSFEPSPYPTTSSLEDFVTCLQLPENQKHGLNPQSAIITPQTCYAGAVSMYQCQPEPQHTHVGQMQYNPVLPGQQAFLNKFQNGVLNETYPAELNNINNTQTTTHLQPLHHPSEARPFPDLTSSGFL
How it was run: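 Compounds were tested in HepG2 hepatocellular carcinoma cells harbouring a stably integrated luciferase gene under control of 20 DREs. Increased reporter signal after 24 h treatment at 37C was taken as AhR activation.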

[9] = qHTS assay to identify small molecule antagonists of the peroxisome proliferator-activated receptor gamma (PPARg) signaling pathway - cell viability counter screen (AID 743194); conditions: PPARg-bla HEK293H viability, CellTiter-Glo luminescence, 17 h, co-treated with 50 nM rosiglitazone; activity change, negative = cytotoxicity: at 62.6 µM (top of the series) unless noted; also: nearly all actives have a fitted effect of over 55% in size; as to activity change, negative = cytotoxicity: % is scaled to controls: 0 for no effect and ±100 for the full control effect
How it was run: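 Viability was measured as CellTiter-Glo luminescence in GeneBLAzer PPARg UAS-bla HEK293H cells. These cells had been exposed 17 h at 37 C to compounds together with rosiglitazone at 50 nM final, with the beta-lactamase readout taken in the same wells.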

[10] = activation: at 57 µM (top of the series) unless noted
[11] = ratio activity, negative = inhibition: at 62.6 µM (top of the series) unless noted
Potency is read from the fitted curve at half-maximal effect; tags tell the direction and shape of the fitted curve or compound fluorescence and quenching.

## OCc1cc(C(O)CNCCCCCCOCCCCc2ccccc2)ccc1O (configuration not stated)
[1]
  Potency: inconclusive: 26.6 µM [inhibitor] and inconclusive: 29.8 µM [inhibitor, single point]
[2]
  Potency: inconclusive: 33.5 µM [falling, single point] and inconclusive: 29.8 µM [falling, single point]
[3]
  Potency: inconclusive: 10.6 µM [cytotoxic, partial curve] and active: 23.7 µM
Aromatase (Homo sapiens)
  Potency: active: 26.6 µM
[4]
  Potency: active: 11.9 µM and active: 9.44 µM
[5]; [10]
  activation: inconclusive: -18.8% and inconclusive: -20.1%

## O=C(CCC1CCN(Cc2ccccc2)CC1)c1ccc2c(c1)NCCCC2
[1]
  Potency: inconclusive: 23.7 µM [inhibitor, partial curve]
[2]
  activity change, negative = inhibition: inconclusive: -29.6%
[3]
  Potency: inconclusive: 33.5 µM [cytotoxic, single point]
[4]
  Potency: inconclusive: 10.6 µM [cytotoxic, partial curve, poor fit]
[6]
  Potency: inconclusive: 10.6 µM [falling, full curve]
[7]; [11]
  Potency: inactive

## CC1=C(C)C(=O)C(CCCCC#CCCCC#CCO)=C(C)C1=O
Aromatase (Homo sapiens)
  Potency: inconclusive: 29.8 µM [inhibitor, partial curve]

## CCCCCCCCCCCC(=O)OC[C@@H](O)[C@H]1OC[C@H](OCCO)[C@H]1OCCO
Aromatase (Homo sapiens)
  Potency: inconclusive: 53.2 µM [inhibitor, partial curve]

## COc1c2ccoc2cc2oc(=O)ccc12
[5]; at 57 µM (top of the series)
  activation: inactive: 0.982%

## Cc1ncc([N+](=O)[O-])n1CCO
[7]; at 62.6 µM (top of the series)
  ratio activity, negative = inhibition: inactive: 15.4%
[7]; at 81.1 µM (top of the series)
  ratio activity, negative = inhibition: inactive: 16.8%

## Cc1cccc2ccccc12
[1]
  Potency: inconclusive: 0.154 µM [activator, full curve]
[8]
  Potency: inconclusive: 69.6 µM [activator, partial curve, poor fit]
[7]; [11]
  Potency: inactive
[9]
  activity change, negative = cytotoxicity: inconclusive: 47.1%

## O=C(N[C@@H](Cc1ccccc1)[C@@H](O)C(=O)N1C[C@@H](O)[C@@H](O)C1)c1cc2cc(Cl)ccc2[nH]1
[1]
  Potency: inconclusive: 68.6 µM [inhibitor, single point]
[6]
  Potency: inconclusive: 68.6 µM [falling, partial curve, poor fit]
[7]; [11]
  Potency: inconclusive: 61.6 µM [inhibitor, single point]

## c1ccc(C(O[C@H]2CCCN(CCc3ccc4c(c3)OCO4)C2)c2ccccc2)cc1
[1]
  Potency: inactive
[5]; [10]
  Potency: inconclusive: 12 µM [rising, partial curve, poor fit]
[7]; [11]
  ratio activity, negative = inhibition: inconclusive: 20.5%

## CC(=O)/C=C/C1C(C)=CCCC1(C)C (configuration not stated)
[1]
  Potency: inconclusive: 27.3 µM [activator, partial curve, poor fit]
[8]
  Potency: inactive

## Cc1cc(NC(=O)C(=O)O)cc(C)c1Oc1ccc(O)c2c1CCC2
[1]
  Potency: active: 38.6 µM
[4]
  Potency: inconclusive: 13.7 µM [rising, partial curve, poor fit]
[9]
  Potency: inconclusive: 54.9 µM [rising, single point]

## C/C=C1/CC2C=CC1C2 (configuration not stated)
[1]
  Potency: inactive
[4]
  Potency: inactive
[9]
  Potency: inconclusive: 59.7 µM [rising, single point]

## CCN(CC)c1ccc(C(=O)c2ccccc2C(=O)O)c(O)c1
[1]
  Potency: active: 17.3 µM and active: 43.3 µM
[5]; [10]
  Potency: inconclusive: 2.76 µM [activator, full curve, poor fit]
  activation: inconclusive: 7.58%
[9]
  Potency: inconclusive: 0.0348 µM [rising, partial curve, poor fit]

## O=c1[nH]c(=O)n([C@H]2C[C@H](O)[C@@H](CO)O2)cc1C(F)(F)F
[1]
  Potency: inconclusive: 11.9 µM [activator, full curve, poor fit]
[8]
  Potency: inactive
[5]; [10]
  Potency: inconclusive: 1.69 µM [inhibitor, full curve]
[7]; [11]
  Potency: inconclusive: 0.0422 µM [inhibitor, full curve]
[9]
  Potency: inactive

## [O-][N+](=Nc1ccccc1)c1ccccc1
[1]
  Potency: active: 15 µM and active: 54.5 µM
[5]; [10]
  activation: inconclusive: 3.15%
[7]; [11]
  ratio activity, negative = inhibition: inconclusive: 2.18%

## CCCNC(C)(C)COC(=O)c1ccccc1
[1]
  Potency: inactive
[5]; [10]
  Potency: active: 0.338 µM

## CC(C)C(=O)O
[1]
  activation: inconclusive: 2.27% [activator]
[4]
  Potency: inconclusive: 67.8 µM [cytotoxic, partial curve, poor fit]
[7]; [11]
  Potency: inactive

## CCCCCCCCOCCCN
[1]
  activation: inconclusive: 13% [phenotype inactive]
[4]
  Potency: inactive
[7]; [11]
  ratio activity, negative = inhibition: inconclusive: 11.5%
[9]
  Potency: inconclusive: 0.776 µM [cytotoxic, full curve, poor fit]

## Oc1c(Cl)ccc(Cl)c1Cl
[1]
  Potency: inactive
[4]
  Potency: inactive
[7]; [11]
  ratio activity, negative = inhibition: inconclusive: -30%

## O=C(c1ccc(O)cc1)c1ccc(O)cc1
[1]
  Potency: active: 2.73 µM
[8]
  Potency: inconclusive: 27.3 µM [activator, partial curve]
[7]; [11]
  Potency: inactive

## Cc1ccc(N(C)C)cc1
[1]
  activation: inconclusive: 5.87% [phenotype inactive]
[4]
  Potency: inactive
[9]
  Potency: inconclusive: 0.218 µM [rising, full curve, poor fit]

## C=Cc1c(C)c2cc3[nH]c(cc4nc(cc5nc(cc1[nH]2)C(C)=C5CCC(=O)O)C(CCC(=O)O)=C4C)c(C)c3C=C
[1]
  Potency: active: 1.06 µM
[5]; [10]
  Potency: inactive
